Source: the supplement of paper PMC4604168 (melanoma cell lines)
Some of the results follow. Repeats are few or missing, and single values can be far off.

test system: IST-MEL1; experiment: cell count relative to DMSO control; melanoma cells; higher = more viable cells; conditions: library dose: low library concentration; 72 h
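Further: cell number obtained by counting DAPI-stained nuclei in high-throughput microscope images with image analysis software, screen run in 1,536-well plates.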

| Structure (SMILES) | cell count |
| --- | --- |
| CN(c1ncccc1CNc1nc(Nc2ccc3c(c2)CC(=O)N3)ncc1C(F)(F)F)S(C)(=O)=O + COc1ccc2c(c1)CCC1C2CCC2(C)C(NCCCCCCN3C(=O)C=CC3=O)CCC12 [U73122] (first compound 0.08 µM, partner dose 0.4 µM) | 99.4% |
| CCCS(=O)(=O)Nc1ccc(F)c(C(=O)c2c[nH]c3ncc(Cl)cc23)c1F + CCCCCCCCCCCC1=C(O)C(=O)C=C(O)C1=O [Embelin] (first compound 0.08 µM, partner dose 1.2 µM) | 98% |
| CN(c1ncccc1CNc1nc(Nc2ccc3c(c2)CC(=O)N3)ncc1C(F)(F)F)S(C)(=O)=O + Oc1nc(-c2ccc(C(F)(F)F)cc2)nc2c1CSCC2 [XAV939] (first compound 0.08 µM, partner dose 2 µM) | 105% |
| NC1(c2ccc(-c3nc4ccn5c(=O)[nH]nc5c4cc3-c3ccccc3)cc2)CCC1 + COc1ccc2c(c1)CCC1C2CCC2(C)C(NCCCCCCN3C(=O)C=CC3=O)CCC12 [U73122] (first compound 0.4 µM, partner dose 0.4 µM) | 102% |
| C=C(c1ccc(C(=O)O)cc1)c1cc2c(cc1C)C(C)(C)CCC2(C)C [Bexarotene] + O=C1NC(=O)/C(=C/c2ccc(-c3ccc(F)cc3O)o2)S1 [AS252424] (first compound 2 µM, partner dose 1 µM) | 89.5% |
| CN(c1ncccc1CNc1nc(Nc2ccc3c(c2)CC(=O)N3)ncc1C(F)(F)F)S(C)(=O)=O + COc1cc(N2CCC(N3CCN(C)CC3)CC2)ccc1Nc1ncc(Cl)c(Nc2ccccc2S(=O)(=O)C(C)C)n1 [NVP-TAE684] (first compound 0.08 µM, partner dose 0.08 µM) | 95.1% |
